This is an account of results in publication PMC4336329 (PLoS ONE, 2015).

Molecules are shown by their SMILES. The whole screen tested about 310,000 compounds, of which about 2,200 (0.71%) showed an effect of 50% or more. Effects have a minus sign here. The list shows a part of the results.

For this assay, the target named is human ether-à-go-go-related gene (hERG) potassium channel (human, UniProt Q12809). The assay is described as follows: primary screen, population patch clamp on CHO cells stably expressing hERG.
Sequence of human ether-à-go-go-related gene (hERG) potassium channel (Q12809 whole entry, looked up): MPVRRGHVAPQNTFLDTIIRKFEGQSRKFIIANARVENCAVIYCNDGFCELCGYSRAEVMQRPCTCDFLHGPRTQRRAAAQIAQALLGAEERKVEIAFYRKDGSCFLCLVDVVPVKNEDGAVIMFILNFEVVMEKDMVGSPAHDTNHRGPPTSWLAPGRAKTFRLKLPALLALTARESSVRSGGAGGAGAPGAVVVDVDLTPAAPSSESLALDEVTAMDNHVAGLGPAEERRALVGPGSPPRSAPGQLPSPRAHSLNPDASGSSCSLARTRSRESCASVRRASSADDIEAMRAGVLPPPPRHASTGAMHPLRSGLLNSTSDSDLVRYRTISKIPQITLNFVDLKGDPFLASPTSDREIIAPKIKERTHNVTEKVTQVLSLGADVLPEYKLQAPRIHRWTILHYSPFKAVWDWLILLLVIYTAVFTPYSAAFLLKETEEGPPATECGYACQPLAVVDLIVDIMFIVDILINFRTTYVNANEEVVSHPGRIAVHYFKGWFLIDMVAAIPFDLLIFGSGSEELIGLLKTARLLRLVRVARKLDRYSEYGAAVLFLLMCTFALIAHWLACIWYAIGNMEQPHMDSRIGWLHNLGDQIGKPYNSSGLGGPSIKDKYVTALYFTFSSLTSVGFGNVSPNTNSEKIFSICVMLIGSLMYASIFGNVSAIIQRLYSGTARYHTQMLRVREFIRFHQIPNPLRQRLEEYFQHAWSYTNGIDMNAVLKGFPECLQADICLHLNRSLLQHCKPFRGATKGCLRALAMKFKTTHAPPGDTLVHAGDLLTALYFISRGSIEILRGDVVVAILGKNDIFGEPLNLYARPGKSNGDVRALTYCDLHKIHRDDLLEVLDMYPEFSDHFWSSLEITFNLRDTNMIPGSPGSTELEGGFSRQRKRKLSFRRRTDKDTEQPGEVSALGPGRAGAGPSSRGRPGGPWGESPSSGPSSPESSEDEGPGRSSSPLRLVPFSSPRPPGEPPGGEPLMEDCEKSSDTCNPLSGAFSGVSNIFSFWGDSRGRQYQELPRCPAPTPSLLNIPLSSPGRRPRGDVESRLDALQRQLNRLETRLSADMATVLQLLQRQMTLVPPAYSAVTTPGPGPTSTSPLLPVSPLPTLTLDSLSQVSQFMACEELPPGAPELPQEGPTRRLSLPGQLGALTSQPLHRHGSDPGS
As to `CN1CCn2c1nc(N1CCCCC1)nc2=O`, the “hERG current change (%, negative = inhibition) at 1uM” value is on record as -0.619%.

Turning to `O=C1c2ccccc2NC(c2cccc(O)c2)N1NS(=O)(=O)c1ccccc1` (stereo not shown), the “hERG current change (%, negative = inhibition) at 1uM” value is 6.25%.

Consider `CCOc1ccc(NC(=O)CSc2nccn(-c3ccc4c(c3)OCCO4)c2=O)cc1`, for which the “hERG current change (%, negative = inhibition) at 1uM” value came to 2.22%.

As to `CCCCNC(=O)CCCN1C(=O)c2cccnc2Sc2ccccc21`, the “hERG current change (%, negative = inhibition) at 1uM” value was determined as 14.1%.

On to `CC(=O)C1=C(O)C(=O)N(CCC(=O)O)C1c1ccccc1[N+](=O)[O-]` (stereo not shown), for which the “hERG current change (%, negative = inhibition) at 1uM” value is recorded as 15.8%.

For `CCn1c(SCC(=O)Nc2c(C#N)cnn2-c2ccccc2)nnc1-c1cccs1`, the “hERG current change (%, negative = inhibition) at 1uM” value turned out to be 3.24%.

Regarding `Cc1ccccc1N1C(=O)CC(=O)NC1=O`, the “hERG current change (%, negative = inhibition) at 1uM” value turned out to be 9.05%.

As for `CCOC(=O)c1cn(CC(=O)Nc2cccc(Cl)c2C)nn1`, the “hERG current change (%, negative = inhibition) at 1uM” value was 15.4%.

Take `[S-]c1nnc(-c2ccc(Br)cc2)n1-c1ccccc1.[Zn+2]`: the “hERG current change (%, negative = inhibition) at 1uM” value came to 15.1%.

Take `CCCCOc1cc(C(=O)OCCN(CC)CC)ccc1N`: the “hERG current change (%, negative = inhibition) at 1uM” value is on record as -28.4%.

Regarding `N#C[C@H]1C2OC2c2ccccc2N1C(=O)c1ccccc1` (stereo partly shown), the “hERG current change (%, negative = inhibition) at 1uM” value is 8.79%.

Consider `Cc1ccc(CN2CCSc3ccc(C(=O)NCCCN4CCOCC4)cc32)cc1`, for which the “hERG current change (%, negative = inhibition) at 1uM” value worked out at 4.33%.

Take `COc1cccc(/C=C2\Oc3ccc(O)cc3C2=O)c1O`: the “hERG current change (%, negative = inhibition) at 1uM” value was 10.3%.

Turning to `CCOc1ccc(CN2C(=O)c3ccccc3Sc3ccc(C(=O)NCCCN4CCOCC4)cc32)cc1`, the “hERG current change (%, negative = inhibition) at 1uM” value is on record as 9.26%.

As for `Cc1onc(-c2ccccc2Cl)c1C(=O)Nc1ccc(S(=O)(=O)N2CCCC2)cc1`, the “hERG current change (%, negative = inhibition) at 1uM” value was 13.3%.

In the case of `CCN(CC)S(=O)(=O)c1cccc(-c2nnc(SCCCC(=O)c3ccc(F)cc3)o2)c1`, the “hERG current change (%, negative = inhibition) at 1uM” value came to 8.68%.

In the case of `Cc1ccc(O)c(C(=O)c2cnn(-c3ccc(S(=O)(=O)N4CCOCC4)cc3[N+](=O)[O-])c2)c1`, the “hERG current change (%, negative = inhibition) at 1uM” value came out at 12.9%.

Consider `Cc1ccc(SCC(=O)NCC2COc3ccccc3O2)cc1` (stereo not shown), for which the “hERG current change (%, negative = inhibition) at 1uM” value is reported as -0.327%.

Regarding `COc1cc(OC)c(OC)cc1CNC(C)C(O)c1ccccc1.Cl` (stereo not shown), the “hERG current change (%, negative = inhibition) at 1uM” value was determined as 17.5%.

As to `COc1cccc(C2C3=C(N=c4s/c(=C\c5ccc(OCC(=O)O)cc5)c(=O)n42)c2ccccc2CC3)c1` (stereo not shown), the “hERG current change (%, negative = inhibition) at 1uM” value was 9.38%.

Regarding `O=C(Nc1ccc(N2CCOCC2)cc1)c1ccc([N+](=O)[O-])o1`, the “hERG current change (%, negative = inhibition) at 1uM” value is given as 9.82%.

Consider `O=[N+]([O-])c1ccc(N2CCNCC2)cc1NCc1ccco1`, for which the “hERG current change (%, negative = inhibition) at 1uM” value is given as -1.74%.

Consider `Nc1cccc(-c2cn3cccnc3n2)c1`, for which the “hERG current change (%, negative = inhibition) at 1uM” value is 11.1%.

As to `CCCCCCCCCCSc1n[nH]c(NC(C)=O)n1`, the “hERG current change (%, negative = inhibition) at 1uM” value is 11.7%.

In the case of `Cc1ccc(SCCNC(=O)c2ccc(C)c([N+](=O)[O-])c2)cc1`, the “hERG current change (%, negative = inhibition) at 1uM” value was -5.33%.

Regarding `CN(CCC1CCOCC1)C(=O)CC1C(=O)NCCN1Cc1ccoc1` (stereo not shown), the “hERG current change (%, negative = inhibition) at 1uM” value was determined as 11.2%.

With `CCOc1ccc(NC(=O)CSc2nnc(Cc3cccn3C)n2-c2ccc(F)cc2)cc1`, the “hERG current change (%, negative = inhibition) at 1uM” value is reported as -14.9%.

Take `COc1ccc(NC(=O)N2CCCC2C(=O)Nc2ccc(C)cc2)cc1` (stereo not shown): the “hERG current change (%, negative = inhibition) at 1uM” value was 1.14%.

Turning to `C=CCn1c(SCC(=O)Nc2ncc(Cc3cc(Cl)ccc3Cl)s2)nnc1-c1ccncc1`, the “hERG current change (%, negative = inhibition) at 1uM” value was determined as 12%.

Regarding `O=C(NNc1cccc(Cl)n1)Nc1cccc(C(F)(F)F)c1`, the “hERG current change (%, negative = inhibition) at 1uM” value is 10.9%.

Turning to `CC(C)CNC(=S)NNC(=O)c1ccc2c(c1)OCO2`, the “hERG current change (%, negative = inhibition) at 1uM” value is 6.48%.

`CCN1CCN(S(=O)(=O)c2ccc(OC)c(NC(=O)c3ccccc3)c2)CC1`: the “hERG current change (%, negative = inhibition) at 1uM” value is -32.8%.

Take `COc1cccc2sc(/N=C/N(C)C)nc12`: the “hERG current change (%, negative = inhibition) at 1uM” value is given as 15.4%.

Regarding `COc1cccc(NC(=O)CSC(N)=O)c1`, the “hERG current change (%, negative = inhibition) at 1uM” value is given as 16.4%.

As to `Cc1ccccc1/C=N/Nc1nc2ccccc2c(=O)n1O`, the “hERG current change (%, negative = inhibition) at 1uM” value is recorded as 15.3%.

Turning to `O=C(CCCn1c(=O)[nH]c2ccsc2c1=O)N1CCCCC1`, the “hERG current change (%, negative = inhibition) at 1uM” value turned out to be 15.3%.

Turning to `Cc1cc(C(=O)N2CCC(Cc3ccccc3)CC2)ccc1[N+](=O)[O-]`, the “hERG current change (%, negative = inhibition) at 1uM” value is listed as -5.63%.

In the case of `O=C(NCCc1cccc(F)c1)/C(=C/c1cccnc1)NC(=O)c1ccccc1`, the “hERG current change (%, negative = inhibition) at 1uM” value is 1.11%.

For the molecule `COC(=O)C1=C(C)NC(=O)NC1c1ccc([N+](=O)[O-])o1` (stereo not shown), the “hERG current change (%, negative = inhibition) at 1uM” value was found to be 11.6%.

`O=S(=O)(Nc1cc(S(=O)(=O)N2CCOCC2)ccc1O)c1ccc2c(c1)OCCCO2`: the “hERG current change (%, negative = inhibition) at 1uM” value came out at 6.82%.

Consider `NNS(=O)(=O)c1ccc(Cc2ncc(C(F)(F)F)cc2Cl)s1`, for which the “hERG current change (%, negative = inhibition) at 1uM” value is recorded as 8.52%.

Regarding `O=C(Nc1ccc(F)c(Cl)c1)c1cncs1`, the “hERG current change (%, negative = inhibition) at 1uM” value is 15.8%.

For `O=C(O)CCCCCCCCCCP(=O)(c1ccccc1)c1ccccc1`, the “hERG current change (%, negative = inhibition) at 1uM” value was 7.21%.

With `CCOC(=O)C[N+]1(C)CCN(C(C)=O)CC1.[Br-]`, the “hERG current change (%, negative = inhibition) at 1uM” value was found to be 6.33%.

With `BrC(=C\c1ccccc1)/C=N/Nc1nc(N2CCOCC2)nc(N2CCOCC2)n1`, the “hERG current change (%, negative = inhibition) at 1uM” value worked out at 4.53%.

In the case of `COc1ccc(-c2nc3ccccc3n2Cc2ccccc2)cc1`, the “hERG current change (%, negative = inhibition) at 1uM” value is reported as -9.89%.
